According to PubChem BioAssay AID588855 (National Center for Advancing Translational Sciences (NCATS), 2011):
Out of some 410,000 compounds screened, about 5,000 (1.2%) were called active. Inconclusive results, whose numbers are uncertain, are shown with a selection of clear calls. Calls come from the whole dose curve; as a rule, active = well fitted inhibition curve with a large enough effect; inconclusive = small, poorly fitted or top-dose-only effect; inactive = no such curve, though single readings can be large or run the other way. Potencies beside an inconclusive call are fits to weak or partial responses and may not hold up.

Assay: qHTS for Inhibitors of TGF-b; note: nearly all actives have a fitted effect of over 65% in size
Conditions: HepG2 CAGA-GFP TGF-b/SMAD3 reporter, GFP fluorescence, 18 h, TGF-beta stimulated, 500 pg/mL final; series mostly up to 46.1 µM
Summary of the method: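 Read-out: total well GFP (ex488/em500-530) summed from mean per-cell fluorescence. Cells: HEPG2 CAGA-GFP, 1% FBS DMEM, 18 h at 37 degrees C with 500 pg/mL final TGF-beta. Unstimulated wells served as the full-inhibition control; stimulated DMSO wells = 0%.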
Potency is the fitted concentration of half-maximal effect; tags give direction and shape of the fitted curve.

Row | SMILES | Potency
1 | CCN(CC)CC(=O)Nc1sc2c(c1C(=O)c1ccccc1OC)CCC2 | inconclusive: 2 µM [inhibitor, full curve]
2 | Cc1ccc(SC2=C(Sc3ccc(C)cc3)C(=O)c3ccccc3C2=O)cc1 | inactive
3 | C/C(=N\NC(=O)c1nn(C)cc1Br)c1ccncc1 | inconclusive: 35.5 µM [inhibitor, single point]
4 | CN1/C(=C\C(=O)Nc2ccc(Br)cc2)C(C)(C)c2ccccc21 | inconclusive: 20 µM [inhibitor, single point]
5 | COc1ccc([C@H]2CC(=O)C=C(c3ccc(Cl)cc3C)C2)cc1 | inconclusive: 35.5 µM [inhibitor, single point]
6 | Cc1onc(-c2ccc(Cl)cc2Cl)c1-c1csc(N/N=C/c2ccccc2Cl)n1 | inactive
7 | CCSC1(SCC)N=C(N)C2(C#N)C(c3ccc(F)cc3)C12C#N (configuration not stated) | inconclusive: 20 µM [inhibitor, single point]
8 | CCOC(=O)Cn1nc(-c2ccccc2)c2cnc3ccc(CC)cc3c21 | inactive
9 | Cc1ccc(C(C)C)cc1NC(=O)Nc1ccc([N+](=O)[O-])cc1 | active: 7.94 µM
10 | Cc1cccc(CN2CCN(CC(=O)N3CCCC3)C2=O)c1 | inactive
11 | CCOc1ccc(Nc2c3c(nc4nncn24)CCC3)cc1 | inconclusive: 12.6 µM [inhibitor, partial curve, poor fit]
12 | CC(=O)N(CCc1cccc(C)c1)Cc1cc2cc(C)ccc2[nH]c1=O | inactive
13 | CCC(C)Sc1ccc(-c2nc3ccc(C)cn3c2NCc2ccccc2)cc1 (configuration not stated) | inconclusive: 10 µM [inhibitor, partial curve, poor fit]
14 | COc1ccc([N+](=O)[O-])c2c(=O)ccoc12 | inconclusive: 28.2 µM [inhibitor, single point]
15 | CCOC(=O)C1=CCN(S(=O)(=O)c2ccccc2Cl)C1c1cccc(Br)c1 (configuration not stated) | inconclusive: 22.4 µM [inhibitor, single point]
16 | Cc1ccc(C(=O)NCC(=O)OCc2nc3ccsc3c(=O)[nH]2)cc1C | inactive
17 | COc1ccc2nc(-c3ccccc3)cc(C(=O)OCC(=O)N3CCCCC3)c2c1 | inactive
18 | CN(C)c1ccc(/C=C/c2ccnc3ccc4ccccc4c23)cc1 | inconclusive: 7.94 µM [inhibitor, partial curve, poor fit]
19 | O=C(Cn1cc(S(=O)(=O)Cc2ccccc2F)c2ccccc21)NCc1ccccc1 | inactive
20 | Cc1cccn2c(Nc3ccccc3)c(-c3ccccn3)nc12 | inconclusive: 11.2 µM [inhibitor, partial curve, poor fit]
21 | COc1cccc(N2CCN(C(=O)c3cc(-c4ccccc4)nc4c3cnn4C(C)C)CC2)c1 | inconclusive: 35.5 µM [inhibitor, single point]
22 | CC1CC(C)CN(C(=O)C(NS(=O)(=O)c2ccc(Br)s2)c2ccccc2)C1 (configuration not stated) | inconclusive: 15.8 µM [inhibitor, partial curve, poor fit]
23 | Cc1cccc(-c2cc3nc4c(c(N5CCOCC5)n3n2)CCCC4)c1 | inconclusive: 11.2 µM [inhibitor, single point]

Row | SMILES | Potency
24 | COc1ccc2[nH]cc(C(=O)N3CCCCC3)c(=O)c2c1 | inconclusive: 1.26 µM [inhibitor, full curve, poor fit]
25 | Cc1nn(C(C)(C)C)c(OC(=O)c2c(F)cccc2F)c1Sc1ccccc1 | inactive
26 | O=C(COC(=O)c1c2c(nc3ccccc13)CCCC2)c1ccc(Br)s1 | inconclusive: 11.2 µM [inhibitor, partial curve, poor fit]
27 | CCCN(CC(=O)Nc1ccccc1C)C(=O)c1ccc(OCc2c(C)noc2C)cc1 | inactive
28 | CCn1c(CSCc2ccc(C)cc2)nnc1SCC(=O)N1CCN(c2ccccc2)CC1 | inconclusive: 12.6 µM [inhibitor, single point]
29 | Cc1cccc(NS(=O)(=O)c2ccc3c(c2)CCCN3C(=O)C2CCC2)c1C | inconclusive: 25.1 µM [inhibitor, single point]
30 | Cc1ccc(S(=O)(=O)C2(C(=O)N3CCN(C4CCCCC4)CC3)CC2)cc1 | inactive
31 | CCn1cc([N+](=O)[O-])c(C(=O)N2N=C(c3ccc(O)c(OC)c3)CC2c2ccccc2O)n1 (configuration not stated) | inconclusive: 25.1 µM [inhibitor, single point]
32 | COc1cccc(Oc2cn[nH]c2-c2ccc(OCC(=O)NN)cc2O)c1 | inconclusive: 35.5 µM [inhibitor, single point]
33 | CN(C)c1ccc(-c2csc(C(C)(O)c3cccc(F)c3)n2)cc1 (configuration not stated) | inconclusive: 7.94 µM [inhibitor, partial curve]
34 | CN1C(=O)c2ccccc2Sc2ccc(NC(=O)c3ccc(C#N)cc3)cc21 | inactive
35 | O=C(NCCCc1nc2ccccc2n1Cc1ccccc1F)c1ccco1 | inconclusive: 35.5 µM [inhibitor, partial curve, poor fit]
36 | Cc1ccc(C(O)(COC(=O)C(C)C)COC(=O)C(C)C)c(O)c1 | inactive
37 | O=C(c1cc2nc(-c3ccc(F)cc3)cc(C(F)(F)F)n2n1)N1CCCCC1c1cccnc1 (configuration not stated) | inconclusive: 11.2 µM [inhibitor, partial curve]
38 | O=C(CCc1ccccc1)N1CCc2c([nH]c3ccccc23)C1c1ccc(F)cc1 (configuration not stated) | inconclusive: 5.62 µM [inhibitor, partial curve]
39 | COc1ccc(NC(=O)/C(N=Nc2cccc(S(=O)(=O)Nc3ccc(SC(F)F)cc3)c2)=C(\C)O)cc1 | inconclusive: 14.1 µM [inhibitor, partial curve, poor fit]
40 | COc1ccc(N(CC(O)Cn2c(C)nc3ccccc32)S(=O)(=O)c2ccc(C)cc2)cc1 (configuration not stated) | inconclusive: 0.501 µM [inhibitor, full curve, poor fit]
41 | CCOc1cc(CNc2ccc3c(c2)OCCO3)cc(Br)c1OC | inconclusive: 35.5 µM [inhibitor, single point]
42 | O=C(Nc1ccc(S(=O)(=O)N(Cc2ccccc2)c2ccccc2)cc1)c1ccc(F)cc1 | inconclusive: 11.2 µM [inhibitor, partial curve, poor fit]
43 | CS(=O)(=O)n1nc(-c2ccc(Cl)cc2)nc1N | inconclusive: 35.5 µM [inhibitor, single point]
44 | Cc1ccn2c(NC3CCCC3)c(-c3ccccn3)nc2c1 | inconclusive: 20 µM [inhibitor, partial curve]
45 | Cc1ccccc1CNC(=O)CC1C(=O)NCCN1Cc1c(F)cccc1Cl (configuration not stated) | inactive
46 | CC1=C(C(=O)Nc2cccc(C(F)(F)F)c2)C2(CCN(C(C)C)CC2)OC1=O | inactive

Row | SMILES | Potency
47 | Cc1ccc2nc(NC(=O)C3CCN(S(=O)(=O)c4cc([N+](=O)[O-])ccc4Cl)CC3)sc2c1 | inconclusive: 11.2 µM [inhibitor, partial curve]
48 | Cc1ccc(-c2nc3c(c(SCC(=O)Nc4cccc(C(=O)O)c4)n2)Cc2cccc(C)c2O3)cc1 | inactive
49 | CCCc1cc(=O)[nH]c(SCC(=O)NC(=O)NC2CCCC2)n1 | inconclusive: 15.8 µM [inhibitor, single point]
50 | O=C(Nc1cccc(-c2cnc3ccccc3n2)c1)c1ccco1 | inconclusive: 0.794 µM [inhibitor, full curve, poor fit]
51 | Cc1ccc(CNC(=O)C2CCCN(Cc3nc(-c4cccc(C)c4)oc3C)C2)cc1 (configuration not stated) | inconclusive: 14.1 µM [inhibitor, single point]
52 | O=C1NC(Cc2ccc(O)cc2)c2nc3ccc(Br)cc3c(=O)n2-c2cc3ccccc3cc21 (configuration not stated) | active: 12.6 µM
53 | CCN(CC(=O)Nc1c(F)cccc1F)C(=O)c1n[nH]c2ccccc12 | inactive
54 | Cc1ccc2nc(SCC(=O)N3CCC(Cc4ccccc4)CC3)nc(=O)n2c1 | inconclusive: 14.1 µM [inhibitor, single point]
55 | Cc1cc2c(cc1S(=O)(=O)Nc1cccc(Cl)c1C)OCCN2C | inconclusive: 35.5 µM [inhibitor, single point]
56 | O=c1cc(-c2ccccc2)nc2c(-c3ccccc3)c(C(F)(F)F)[nH]n12 | inconclusive: 12.6 µM [inhibitor, partial curve, poor fit]
57 | O=C(O)c1ccc(N=NNc2cccc([N+](=O)[O-])c2)cc1 | inactive
58 | COc1ccc(S(=O)(=O)N(C)C[C@H]2Oc3ccc(NC(=O)Nc4ccc(C(F)(F)F)cc4)cc3C(=O)N([C@H](C)CO)C[C@@H]2C)cc1 | inconclusive: 11.2 µM [inhibitor, partial curve, poor fit]
59 | CN(Cc1nc2ccc(F)cc2[nH]1)Cc1c(C(=O)N(C)C)nc2ccc(Cl)cn12 | inconclusive: 4.47 µM [inhibitor, partial curve, poor fit]
60 | CCOc1ccccc1/C=C/C(=O)c1ccc(Cl)cc1 | inconclusive: 22.4 µM [inhibitor, single point]
61 | COc1cccc(CNc2nc3cc(-c4ccccc4C)sc3c(=O)n2C)c1 | inconclusive: 35.5 µM [inhibitor, single point]
62 | O=C(/C=C/c1ccco1)Oc1cc(Br)cc(/C=N/NC(=O)c2ccccc2O)c1 | active: 10 µM
63 | Nc1nc(=O)n(C2CC(O)C(CO)O2)cc1F (configuration not stated) | inactive
64 | Cc1cc(C)c(NC2=NCC(=O)N2C2CCCCC2)c(C)c1 | inactive
65 | CC(C)(C)OC(=O)CC(S(=O)(=O)c1ccccc1)S(=O)(=O)c1ccccc1 | inconclusive: 22.4 µM [inhibitor, single point]
66 | COc1ccc(CCNC(=O)CCn2c(=O)c3ccccc3n(Cc3ccccc3C)c2=O)cc1OC | inactive
67 | Cc1ccnc2nc(C(=O)OCCOc3ccc(Cl)cc3)nn12 | inconclusive: 22.4 µM [inhibitor, partial curve, poor fit]
